# From a collection of fitness landscapes (doi:10.1016/j.celrep.2020.107928)
# In all, about 81,000 sequences were measured (“one-hybrid fitness for binding NBS DNA”: median about -0.1, highest 2% from about 0.36 on). The list shows a part of the results.
# B1: Caulobacter ParB omega fusion; a variant is named by its letters at X, in order, B8GW30 (parent)
# chain: MESVVVGEPGMSEGRRGLGRGLSALLGEVDAAPAQAPGEQLGGSREAPIEILQRNPDQPRRTFREEDLEDLSNSIREKGVLQPILVRPSPDTAGEYQIVAGERAWRAAQRAGLKTVPIMVRELDDLAVLEIGIIENVQRADLNVLEEALSYKVLMEKFERTQENIAQTIGKSXSHVANXMRLLXLPDEVQSYLVSGELTAXHARAIAAAADPVALAKQIIEGGLSVRETEALARKAPNLSAGKSKGGRPPRVKDTDTQALESDLSSVLGLDVSIDHRGSTGTLTITYATLEQLDDLCNRLTRGI
# Variants of: B1
# Assay: one-hybrid fitness for binding NBS DNA (the Noc-binding site; scaled: cognate 1, non-cognate 0); higher = stronger binding
# Conditions: with NBS DNA site
# Procedure, shortened: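 Bacterial one-hybrid selection in E. coli USO rpoZ- hisB- pyrF- with a HIS3 reporter carrying the site 19 bp from the promoter, screening Caulobacter ParB libraries with four specificity codons randomised (NNS). Cells grew 48 hours at 37°C on M9-minus-histidine plus 0.1 mM IPTG and 5 mM 3-AT. Plasmids before and after selection were Illumina-sequenced, three replicate libraries pooled, and variants under 10 reads dropped. Fitness is the log change in variant-to-wild-type read ratio, rescaled to cognate 1, non-cognate 0.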
row,Variant,one-hybrid fitness for binding NBS DNA
1,AGRI,≤ 0.2
2,PETT,≤ 0.2
3,LVKY,≤ 0.2
4,SHFL,≤ 0.2
5,ISTC,≤ 0.2
6,SPRL,≤ 0.2
7,KRRC,0.273
8,EGAD,≤ 0.2
9,RGVV,≤ 0.2
10,FYLR,≤ 0.2
11,QAFT,0.326
12,CYTT,≤ 0.2
13,AYHN,≤ 0.2
14,ASMC,≤ 0.2
15,QLNV,≤ 0.2
16,MQLN,≤ 0.2
17,GVAS,≤ 0.2
18,KKVF,≤ 0.2
19,YPDV,≤ 0.2
20,RDAA,≤ 0.2
21,WIMT,≤ 0.2
22,GHRF,≤ 0.2
23,TDHG,≤ 0.2
24,APAF,≤ 0.2
25,WGAE,≤ 0.2

row,Variant,one-hybrid fitness for binding NBS DNA
1,FWST,≤ 0.2
2,PRAP,≤ 0.2
3,FQAC,≤ 0.2
4,IACG,≤ 0.2
5,TIFV,≤ 0.2
6,DTGI,≤ 0.2
7,NHGC,≤ 0.2
8,CPRC,≤ 0.2
9,DCVS,≤ 0.2
10,QQRF,0.387
11,QCQK,≤ 0.2
12,PSDP,≤ 0.2
13,AMNT,≤ 0.2
14,GPYT,≤ 0.2
15,RQLG,≤ 0.2
16,AIDE,≤ 0.2
17,ACRY,≤ 0.2
18,QSLW,≤ 0.2
19,RDFT,≤ 0.2
20,IWQG,≤ 0.2
21,YPHR,≤ 0.2
22,RWHM,≤ 0.2
23,TWVL,≤ 0.2
24,AMII,≤ 0.2
25,NCTG,≤ 0.2

row,Variant,one-hybrid fitness for binding NBS DNA
1,SNKW,≤ 0.2
2,FHLD,≤ 0.2
3,QVLP,≤ 0.2
4,RPFT,≤ 0.2
5,HRAM,≤ 0.2
6,RLVM,≤ 0.2
7,QLNK,≤ 0.2
8,FGCL,≤ 0.2
9,PGRC,≤ 0.2
10,PDWT,≤ 0.2
11,TMAR,≤ 0.2
12,YHET,≤ 0.2
13,ANHL,≤ 0.2
14,RWNC,≤ 0.2
15,PHNQ,≤ 0.2
16,PLYF,≤ 0.2
17,PIVS,≤ 0.2
18,YDPR,≤ 0.2
19,NWQV,≤ 0.2
20,TYLF,≤ 0.2
21,CAFS,≤ 0.2
22,TSIK,≤ 0.2
23,YQCR,≤ 0.2
24,VYLA,≤ 0.2
25,TFML,≤ 0.2

row,Variant,one-hybrid fitness for binding NBS DNA
1,FVIL,≤ 0.2
2,NNAI,≤ 0.2
3,PGLA,≤ 0.2
4,DRYC,≤ 0.2
5,YIDS,≤ 0.2
6,PWHC,≤ 0.2
7,DVMR,≤ 0.2
8,LKKS,≤ 0.2
9,LHIC,≤ 0.2
10,NSGA,≤ 0.2
11,HAIG,≤ 0.2
12,PIRL,≤ 0.2
13,LMNE,≤ 0.2
14,CFCT,≤ 0.2
15,EYEW,≤ 0.2
16,VIKT,≤ 0.2
17,ATGK,≤ 0.2
18,LCCL,≤ 0.2
19,TNPR,≤ 0.2
20,RTCK,≤ 0.2
21,QIWS,0.247
22,RQQH,≤ 0.2
23,GWQT,≤ 0.2
